Reference: PMC9949118 (bioRxiv, 2023)

Molecular target: 6×His-MYC-Strep-Tag II (human, UniProt P01106-1)
Assay: MST

B1: 6×His-MBP-GFP-MAX-Strep-Tag II (natural protein)
chain: MSDNDDIEVESDEEQPRFQSA[omitted - about 80 residues]KARSSAQLQTNYPSSDNSLYTNAKGSTISAFDGGSDSSSESEPEEPQSRKKLRMEAS
- binding result: binds
